Assay results taken from the RNAGym collection of RNA variant scans (doi:10.1093/nar/gkz1192).
Read counts are not given, so values of variants with three or more changes are uncertain.

B1: CPEB3 Ribozyme (parent)
chain: UAACAGGGGGCCACAGCAGAAGCGUUCACGUCGCAGCCCCUGUCAGAUUCUGGUGAAUCUGCGAAUUCUGCUGUAUAUCUC

Variants of: B1
Test: self-cleavage, relative activity (ratio to wild type); higher = more cleavage; in vitro, sequencing
Method in brief: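 After error-prone PCR and barcoding, CPEB3 ribozyme mutant libraries were transcribed with T7 RNA polymerase at 37°C for 5 hours, then given 15 min with DNase I before an EDTA stop, and they cleaved during both steps. Reverse transcription with template switching preceded Illumina sequencing. Relative activity divides a variant's cleaved/total read fraction by the unmutated ribozyme's. At least 5 reads were required per variant, and three batches were averaged.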

Row | Variant | self-cleavage
1 | UAACAGGGGGCCACAGCAGAAGUGUUCACGUCGCAGCCACUGUCAGACUCUGGUGAAUCUGCGAAUUCUGCUGUAUGUCUC | 0.05
2 | UAACAGGGGGCCACAGCAGAAGUGUUCACGUCGCAGCCACUGUCAGAUUCUGGUGAAUCCGCGAAUUCAGCUGUAUAUCUC | 0.07
3 | UAACAGGGGGCCACAGCAGAAGUGUUCACGUCGCAGCCCCUGUUAGAUACUGGUGAAUCAGCGAAUUCUGCUGUAUAUCUC | 0.13
4 | UAACAGGGGGCCACAGCAGAAGUGUUCACGUCGCAGCCCCUGUCAGAUUAUGAUGAAUCUGCGAAUUCUACGGUAUAUCUC | 0.07
5 | UAACAGGGGGCCACAGCAGAAGUGUUCACGUCGCAGCCCCUGUCAGAUUAAGGUGAAUCUGCGAAUCCUGCUGUAUAUCUC | 0.11
6 | UAACAGGGGGCCACAGCAGAAGUGUUCACGUCGCAGCCCCUGUCAGAUUGUGGUGAAUCUGCGCAUUCUGCUGUAUAUCUC | 0.13
7 | UAACAGGGGGCCACAGCAGAAGUGUUCACGUCGCAGCCCCUGUCAGAUUCUGGUGAAUCUGCGAAUUAUGCUGAACAUCUC | 0.04
8 | UAACAGGGGGCCACAGCAGAAGUACUAACGUCGCAGCCCCAGUCAGAUUCUGGUGAAUCUGCGAGUUCUGCUGUAUAUCUC | 0.09
9 | UAACAGGGGGCCACAGCAGAAGUGUUCACAUCGCAGCCCCUGUCAGAUUCUGGCGAAUCUGCGAAUUCGGCUGUAUAUCUC | 0.06
10 | UAACAGGGGGCCACAGCAGAAGUGUUCACGUCCCAGCCCCUGUCAGAUUCUGGUGAAUCCGCGAAUUCUGCUGUAUAUCUC | 0.12
11 | UAACAGGGGGCCACAGCAGAAGUGUUCACGUCGCAGCCCCUGUCAGAUUCUGGUAAACCUGCGAAUUCUGCUGUAUAUCUC | 0.08
12 | UAACAGGGGGCCACAGCAGAAGUGUUCACGUCGCAGCCCCUGUCAGAUUCUGGUAAAUCUGCGAACUCUGCUGUAUAUCUC | 0.5
13 | UAACAGGGGGCCACAGCAGAAGUGUUCACGUCGCAGCCCCUGUCAGAUUCUGGUGAAUCUCCGAGUUCUGCUGUAUACCUC | 0.08
14 | UAACAGGGGGCCACAGCAGAAGUGAACACGUCGCAGCCCCUGCCAGAUUCUGGUGAAUCAGCGAAUUCUGCUGUACAUCUC | 0.06
15 | UAACAGGGGGCCACAGCAGAAGUGCUCACGUCGCAGCCCCUGUCAGAUUCUGGUGGAUCUGCGAAUUCUGCUGUAUAUCUC | 0.07
16 | UAACAGGGGGCCACAGCAGAAGUGCUCACGUCGCAGCCCCUGUCAGAUUCUGGUGAUUCCGCGAUUCCUGCUGUAUAUCUC | 0.06
17 | UAACAGGGGGCCACAGCAGAAGUGCUCACGUCGCAACCCCUGUCUGAUUCUGGUGAAUCUGCGAAUUACGCUGUAUAUCUC | 0.1

Row | Variant | self-cleavage
18 | UAACAGGGGGCCACAGCAGAAGUGCCCACGUCGCAGCCCCUGUCAGAUUCUGGUGAAUCUGCGAAUUCUGCUGUAUAUCUC | 0.12
19 | UAACAGGGGGCCACAGCAGAAGUGCUCACGUCGCAGCCCCUGUCAGACUCUGGUGAACCUGCGAAUUCUGCUGUAUAUCUC | 0.19
20 | UAACAGGGGGCCACAGCAGAAGUGCUCACGUCGCAGCCCCUGUCAGAUUCUGGUGAAUCUGCGAAUGCUGCUGUAUAUCUC | 0.08
21 | UAACAGGGGGCCACAGCAGAAGUGUACACGUCGCAGCCCCCGUCUGAUACUGGUGAAUCUGCGAAUUCUGCUGUAUAUCUC | 0.1
22 | UAACAGGGGGCCACAGCAGAAGUGUACACGUCGCAGCCCCUGUCAGAUCCUGGCGAAUCUGCGAAUUCUGCUGUAUAUCUC | 0.31
23 | UAACAGGGGGCCACAGCAGAAGUGUACACGUCGCAGCCCCUGUCAGAUUCUGGUGAAUCUGCGAAGUCUGCUGUAUAUCUC | 0.07
24 | UAACAGGGGGCCACAGCAGAAGUGUCCUCGUCGCAGCCCCUGUCAGAUUCUGGUGAAUCUGCGAAUUCUCCUGUAUAUCUC | 0.14
25 | UAACAGGGGGCCACAGCAGAAGUGUCCACGUCGCGGCCCCUGUCAGAUUCUGGUAGAUCUGCGAAUUCUGCCGUAUAUCUC | 0.18
26 | UAACAGGGGGCCACAGCAGAAGUGUCCACGUCGCAGCCCCUGUCUGAUUCUGGUGAAUCUGCGAAUUCUGCUGUAUAUUUC | 0.27
27 | UAACAGGGGGCCACAGCAGAAGUGUCCACGUCGCAGCCCCUGUCAGAUUCUGGUGGAUCUGCGAAUUCUGCUGUAUAUCUC | 0.17
28 | UAACAGGGGGCCACAGCAGAAGUGUCCACGCCGCGGCCCCCGUCGGAUUCUGGUGAAUCUGCGAAUUCUGCUGUAUAUCCC | 0.03
29 | UAACAGGGGGCCACAGCAGAAGUGUCCACGUCGCAGCCCCCGUCAGAUUCUGGUGAAUCUGCGAAUUCUGCUGUAUAUCUC | 0.16
30 | UAACAGGGGGCCACAGCAGAAGUGUCCACGUCGCAGCCCCUGCCAGAUUCUGGUGAAUCUGCGAAUUCUGCUGUAUAUCUC | 0.1
31 | UAACAGGGGGCCACAGCAGAAGUGUGCACGUCGCAGCCCCUGUCAGACUCUGGUGAAUCUGCGAAUACCGCUGUAUAUCUC | 0.05
32 | UAACAGGGGGCCACAGCAGAAGUGUGCACGUCGCAGCCCCUGUCAGAUUCCGGUGAAUCUGCGAAUUCCGCUGUAUAUCUC | 0.08
33 | UAACAGGGGGCCACAGCAGAAGUGUUCACGACGCAGCCCCCGUCAGCUUCGGGUGAAUCCGCGAAUUCCGCUGUAUAUCUC | 0.05
34 | UAACAGGGGGCCACAGCAGAAGUGUUCACGACGCAGCCCCCGUCAGGCUCUGGUGAAACUGCGAAUUCUGCUGUAUAUCUC | 0.07
